# The supplement of paper PMC8728848
# The other results are listed elsewhere or left out.
# B1: Langerin (Homo sapiens), Q9UJ71 (protein)
# chain: STLNAQIPELKSDLEKASALNTKIRALQGSLENMSKLLKRQNDILQVVSQGWKYFKGNFYYFSLIPKTWYSAEQFCVSRNSHLTSVTSESEQEFLYKTAGGLIYWIGLTKAGMEGDWSWVDDTPFNKVQSARFWIPGEPNDAGNNEHCGNIKAPSLQAWNDAPCDITFLFICKRPYVPSEP
# Columns and labels:
# Experiment in all cases: glycan array binding signal (z-score within array); higher = stronger binding
# Conditions in all cases: glycan notation: IUPAC condensed, linker removed; mutation: N288D, K313I
# [1] = target: Fuc(a1-2)Gal
# Procedure, shortened: (§1)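 Columns mapping to the same glycan were averaged after glycan names were converted to IUPAC-condensed notation. The data come from 3228 arrays in the Consortium for Functional Glycomics database, limited to those with an available protein sequence. Binding is reported as a within-array Z-score averaged across arrays of one protein sequence and across linkers.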
# [2] = target: Fuc(a1-2)Gal(b1-3)GalNAc
# Procedure, shortened: as §1
# [3] = target: Fuc(a1-2)Gal(b1-3)GalNAc(a1-3)[Fuc(a1-2)]Gal(b1-4)Glc
# Procedure, shortened: as §1
# [4] = target: Fuc(a1-2)Gal(b1-3)GalNAc(a1-3)[Fuc(a1-2)]Gal(b1-4)GlcNAc
# Procedure, shortened: as §1
# [5] = target: Fuc(a1-2)Gal(b1-3)GalNAc(b1-3)Gal
# Procedure, shortened: as §1
# [6] = target: Fuc(a1-2)Gal(b1-3)GalNAc(b1-3)Gal(a1-4)Gal(b1-4)Glc
# Procedure, shortened: as §1
# [7] = target: Fuc(a1-2)Gal(b1-3)GalNAc(b1-4)[Neu5Ac(a2-3)]Gal(b1-4)Glc
# Procedure, shortened: as §1
# [8] = target: Fuc(a1-2)Gal(b1-3)GlcNAc
# Procedure, shortened: as §1
# [9] = target: Fuc(a1-2)Gal(b1-3)GlcNAc(b1-2)Man(a1-3)[Fuc(a1-2)Gal(b1-3)GlcNAc(b1-2)Man(a1-6)]Man(b1-4)GlcNAc(b1-4)GlcNAc
# Procedure, shortened: as §1
# [10] = target: Fuc(a1-2)Gal(b1-3)GlcNAc(b1-2)Man(a1-3)[Fuc(a1-2)Gal(b1-3)GlcNAc(b1-2)Man(a1-6)]Man(b1-4)GlcNAc(b1-4)[Fuc(a1-6)]GlcNAc
# Procedure, shortened: as §1
# [11] = target: Fuc(a1-2)Gal(b1-3)GlcNAc(b1-3)Gal(b1-4)Glc
# Procedure, shortened: as §1
# [12] = target: Fuc(a1-2)Gal(b1-3)GlcNAc(b1-3)GalNAc
# Procedure, shortened: as §1
# [13] = target: Fuc(a1-2)Gal(b1-3)GlcNAc(b1-3)[Fuc(a1-2)Gal(b1-3)GlcNAc(b1-6)]GalNAc
# Procedure, shortened: as §1
# [14] = target: Fuc(a1-2)Gal(b1-3)GlcNAc(b1-3)[Gal(b1-4)GlcNAc(b1-6)]Gal(b1-4)Glc
# Procedure, shortened: as §1
# [15] = target: Fuc(a1-2)Gal(b1-3)GlcNAc(b1-3)[Neu5Ac(a2-6)Gal(b1-4)GlcNAc(b1-6)]Gal(b1-4)Glc
# Procedure, shortened: as §1
# [16] = target: Fuc(a1-2)Gal(b1-3)GlcNAc6S
# Procedure, shortened: as §1
# [17] = target: Fuc(a1-2)Gal(b1-3)[Fuc(a1-4)]GlcNAc
# Procedure, shortened: as §1
# [18] = target: Fuc(a1-2)Gal(b1-3)[Fuc(a1-4)]GlcNAc(b1-2)Man(a1-3)[Fuc(a1-2)Gal(b1-3)[Fuc(a1-4)]GlcNAc(b1-2)Man(a1-3)]Man(b1-4)GlcNAc(b1-4)GlcNAc
# Procedure, shortened: as §1
# [19] = target: Fuc(a1-2)Gal(b1-3)[Fuc(a1-4)]GlcNAc(b1-2)Man(a1-3)[Fuc(a1-2)Gal(b1-3)[Fuc(a1-4)]GlcNAc(b1-2)Man(a1-6)]Man(b1-4)GlcNAc(b1-4)[Fuc(a1-6)]GlcNAc(b1-4)[Fuc(a1-6)]GlcNAc
# Procedure, shortened: as §1
# [20] = target: Fuc(a1-2)Gal(b1-3)[Fuc(a1-4)]GlcNAc(b1-3)[Fuc(a1-3)[Gal(b1-4)]GlcNAc(b1-6)]Gal(b1-4)Glc
# Procedure, shortened: as §1
# [21] = target: Fuc(a1-2)Gal(b1-3)[Fuc(a1-4)]GlcNAc(b1-3)[Gal(b1-4)GlcNAc(b1-6)]Gal(b1-4)Glc
# Procedure, shortened: as §1
# [22] = target: Fuc(a1-2)Gal(b1-4)Fuc(a1-3)]GlcNAc(b1-2)Man(a1-3)[Fuc(a1-2)Gal(b1-4)[Fuc(a1-3)]GlcNAc(b1-2)Man(a1-6)]Man(b1-4)GlcNAc(b1-4)GlcNAc
# Procedure, shortened: as §1
# [23] = target: Fuc(a1-2)Gal(b1-4)Glc
# Procedure, shortened: as §1
# [24] = target: Fuc(a1-2)Gal(b1-4)Glc6S
# Procedure, shortened: as §1
# [25] = target: Fuc(a1-2)Gal(b1-4)GlcNAc
# Procedure, shortened: as §1
# [26] = target: Fuc(a1-2)Gal(b1-4)GlcNAc(b1-2)Man
# Procedure, shortened: as §1
# [27] = target: Fuc(a1-2)Gal(b1-4)GlcNAc(b1-2)Man(a1-3)[Fuc(a1-2)Gal(b1-4)GlcNAc(b1-2)Man(a1-6)]Man(b1-4)GlcNAc(b1-4)GlcNAc
# Procedure, shortened: as §1
# [28] = target: Fuc(a1-2)Gal(b1-4)GlcNAc(b1-2)Man(a1-3)[Fuc(a1-2)Gal(b1-4)GlcNAc(b1-2)Man(a1-6)]Man(b1-4)GlcNAc(b1-4)[Fuc(a1-6)]GlcNAc
# Procedure, shortened: as §1
# [29] = target: Fuc(a1-2)Gal(b1-4)GlcNAc(b1-2)[Fuc(a1-2)Gal(b1-4)GlcNAc(b1-4)]Man(a1-3)[Fuc(a1-2)Gal(b1-4)GlcNAc(b1-2)Man(a1-6)]Man(b1-4)GlcNAc(b1-4)GlcNAc
# Procedure, shortened: as §1
# [30] = target: Fuc(a1-2)Gal(b1-4)GlcNAc(b1-3)Gal(b1-4)GlcNAc
# Procedure, shortened: as §1
binder,measurement,setting,value
B1,glycan array binding signal (z-score),[1],-0.159
same,glycan array binding signal (z-score),[2],-0.114
same,glycan array binding signal (z-score),[3],-0.057
same,glycan array binding signal (z-score),[4],-0.237
same,glycan array binding signal (z-score),[5],-0.06
same,glycan array binding signal (z-score),[6],-0.198
same,glycan array binding signal (z-score),[7],-0.086
same,glycan array binding signal (z-score),[8],-0.189
same,glycan array binding signal (z-score),[9],-0.01
same,glycan array binding signal (z-score),[10],-0.086
same,glycan array binding signal (z-score),[11],-0.099
same,glycan array binding signal (z-score),[12],-0.193
same,glycan array binding signal (z-score),[13],0.215
same,glycan array binding signal (z-score),[14],-0.246
same,glycan array binding signal (z-score),[15],-0.054
same,glycan array binding signal (z-score),[16],-0.016
same,glycan array binding signal (z-score),[17],-0.13
same,glycan array binding signal (z-score),[18],0.058
same,glycan array binding signal (z-score),[19],0.376
same,glycan array binding signal (z-score),[20],-0.158
same,glycan array binding signal (z-score),[21],-0.101
same,glycan array binding signal (z-score),[22],-0.237
same,glycan array binding signal (z-score),[23],-0.288
same,glycan array binding signal (z-score),[24],-0.003
same,glycan array binding signal (z-score),[25],-0.316
same,glycan array binding signal (z-score),[26],-0.163
same,glycan array binding signal (z-score),[27],-0.023
same,glycan array binding signal (z-score),[28],-0.117
same,glycan array binding signal (z-score),[29],0.132
same,glycan array binding signal (z-score),[30],-0.104
